“And” between values parts separate entries of the source, which are not always exact repeats. Identical values can stand only once. The campaign covered roughly 420,000 compounds. About 64,000 (15%) were called active. The shares of active, inactive and inconclusive entries below differ from those in the screen. Calls come from the whole dose curve; as a rule, active = well fitted inhibition curve with a large enough effect; inconclusive = small, poorly fitted or top-dose-only effect; inactive = flat fitted curve, though single readings scatter. Where the call is inconclusive, the potency comes from a doubtful curve fit.
Assay: qHTS for Inhibitors of human tyrosyl-DNA phosphodiesterase 1 (TDP1): qHTS in cells in absence of CPT; note: nearly all actives have a fitted effect of over 55% in size
Conditions: DT40 Tdp1-/- hTDP1 cells, no CPT, ATP luminescence, 48 h; activity change, negative = growth inhibition: at 46.2 µM (top of the series) unless noted
Outline: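 DT40 Tdp1-/-;hTDP1 cells, no CPT (DMSO vehicle only), 400 cells/well; compounds pin-transferred; ≥48 hr, 37 °C; CellTiter-Glo 30 min RT dark, luminescence read.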
% is set by controls: 0 for no effect and ±100 for the full control effect; potency is the fitted concentration of half-maximal effect; tags give direction and shape of the fitted curve.

SMILES | Potency | activity change, negative = growth inhibition
O=c1[nH]c2cc3c(cc2cc1CN(CCc1ccccc1)C(=S)NCCCN1CCOCC1)OCCO3 | active: 20.6 µM | 
O=C(CCCCCn1c(SCC(=O)c2ccccc2)nc2ccccc2c1=O)NCc1ccco1 | active: 20.6 µM | 
CCCCn1c(N)c(N(C(=O)CSc2nncn2-c2ccccc2C)C2CCCC2)c(=O)[nH]c1=O | inactive | 
Cc1nnc(NC(=O)c2nc(S(=O)(=O)Cc3ccccc3)ncc2Cl)s1 | active: 2.91 µM and active: 11.6 µM | 
CCC(/C=N/NC(=O)C(N)=O)CC | inactive | 
O=C(Cn1nc(Br)nc1Br)c1ccccc1 | inactive | 
CN(C)C(C(=O)NC1CCCCC1)c1ccc(Cl)cc1 (centres undefined) | inconclusive: 9.2 µM [inhibitor, partial curve, poor fit] | 
O=C(NC(O)C(=O)c1ccccc1)c1cccs1 (centres undefined) | inconclusive: 29.1 µM [inhibitor, single point] | 
CCOC(=O)c1ccccc1Nc1cn(C(C)=O)c2ccccc12 | active: 4.61 µM | 
O=C(CCCNC(=O)c1ccc(Cl)cc1)Nc1ccc(S(=O)(=O)Nc2ncccn2)cc1 | inconclusive: 25.9 µM [inhibitor, single point] | 
CC(=O)Nc1c(C)nn(-c2ccccc2)c1N1CCC(C(=O)Nc2cc(Cl)ccc2C)CC1 | inactive | 
O=C1CN(C(=O)c2c(F)cccc2F)C(c2ccc(F)cc2)c2cc(Br)ccc2N1 (centres undefined) | inconclusive: 25.9 µM [inhibitor, single point] | 
O=C(O)/C(=C\c1cn(-c2ccccc2)nc1-c1ccc(Cl)cc1)NC(=O)c1ccccc1 | inactive | 
COC(=O)c1cccc(NC(=O)Cc2coc3cc(OC)ccc23)c1 | inactive | 
COc1cccc(-n2c(N)cc(=O)nc2SCC(=O)N2CCN(c3ccccc3)CC2)c1 | inactive | 
CCOc1ccc(C(=O)OCC(=O)NCC2CCCO2)cc1 (centres undefined) | inactive | 
CCc1cc(-c2nnn(CCC3COCCO3)c2CC)cc(CC)c1-c1cn(CCc2c[nH]c3ccccc23)nn1 (centres undefined) | inconclusive: 14.6 µM [inhibitor, partial curve] | 
Cn1sc2ccccc2c1=O | active: 1.64 µM | 
CCCn1c(C(O)c2cc(OC)ccc2OC)nc2ccccc21 (centres undefined) | inactive | 
CC(=O)NC(c1ccc(N(C)C)cc1)c1cc(Cl)c2cccnc2c1O (centres undefined) | active: 6.51 µM | 
CCCOc1ccc(C2c3c(-c4ccccc4O)n[nH]c3C(=O)N2Cc2ccncc2)cc1OCC (centres undefined) | inactive | 
CCCCCCc1ccc(N2C[C@H](CCCCC)[C@@H](CC(=O)NCc3ccc(OC)cc3)C2=O)cc1 | active: 12.6 µM | 
O=C(NCCC1CCCCN1S(=O)(=O)c1ccccc1)C(=O)NC1CCCC1 (centres undefined) | inconclusive: 29.1 µM [inhibitor, single point] | 

SMILES | Potency | activity change, negative = growth inhibition
C=C[C@@]1(C)CC(=O)[C@]2(O)[C@@]3(C)[C@@H](O)CCC(C)(C)[C@@H]3[C@H](O)[C@H](OC(C)=O)[C@@]2(C)O1 | inconclusive: 16.8 µM [inhibitor, partial curve] and inconclusive: 23.1 µM [inhibitor, single point] | 
COc1cccc(-c2nn(C)c3sc(C(=O)NCc4ccc5c(c4)OCO5)cc23)c1 | inconclusive: 29.1 µM [inhibitor, single point] | 
O=c1c2ccccc2n(Cc2ccc(F)cc2)c(=O)n1C1CCCC1 | inconclusive: 29.1 µM [inhibitor, single point] | 
C=CCNC(=S)N1CCC(C(=O)c2ccc(F)cc2)CC1 | inconclusive: 23.1 µM [inhibitor, single point] | 
COC(=O)c1cc(NC(=O)c2cc(-c3ccc(Cl)cc3)oc2C(F)(F)F)ccc1N1CCOCC1 | active: 18.4 µM | 
N#Cc1c(N)nc2c3c(sc(=N)c2c1N)NC(=O)CC3c1ccccc1 (centres undefined) | inconclusive: 29.1 µM [inhibitor, single point] | 
N#Cc1cc(C#N)c(SCC(=O)NCC2CCCO2)nc1N (centres undefined) | inactive | 
O=C(NCC1CCCO1)C1CCCN(S(=O)(=O)c2ccc(Br)cc2)C1 (centres undefined) | inconclusive: 29.1 µM [inhibitor, single point] | 
COc1nc(-c2cccs2)cc(-c2ccc(C)cc2)c1C#N | active: 12.6 µM | 
Clc1ccc(C2CSc3c4ncnc-4ncn32)cc1 (centres undefined) | inactive | 
COC(=O)[C@@]12CCCCN1[C@H](c1ccc(SC3CCCCC3)cc1)[C@H]1C(=O)N(C)C(=O)[C@H]12 | active: 16.4 µM | 
COc1cccc(CN2CCCC(c3nc(-c4ccncc4)ncc3-c3ccccc3C)C2)c1O (centres undefined) | inactive | 
Cc1cccn2cc(-c3ccc(NC(=O)Cc4ccccc4)cc3)nc12 | inconclusive: 25.9 µM [inhibitor, single point] | 
COc1ccc(C)cc1NC(=O)C(=O)NCCc1csc(-c2ccc(C)cc2)n1 | inconclusive: 25.9 µM [inhibitor, single point] | 
C#CCNC(=O)C1=C[C@H](c2ccc(C(F)(F)F)cc2)C[C@H](OCc2ccc(CO)cc2)O1 | inconclusive: 25.9 µM [inhibitor, single point] | 
CCOC(=O)C=C(C(=O)OCC)C(=O)OCC | active: 4.61 µM | 
COc1ccc(N2CCN(C(c3cc4cc(C)ccc4[nH]c3=O)c3nnnn3Cc3ccccc3)CC2)cc1 (centres undefined) | inconclusive: 29.1 µM [inhibitor, single point] | 
CCOc1ccc(CCNC(=O)CCc2nnc3ccc(N4CCCC4)nn23)cc1OCC | inconclusive: 23.1 µM [inhibitor, single point] | 
CC1CCN(S(=O)(=O)c2ccc(NC(=S)NC(=O)c3ccc(Cl)cc3)cc2)CC1 | inconclusive: 18.4 µM [inhibitor, partial curve] | 
CN(C)c1ccc(-c2nn3c(-c4cc(-c5ccccc5)n[nH]4)nnc3s2)cc1 | active: 3.16 µM | 
COC(=O)C1=C(C)NC(C)=C(C(=O)OC)C1c1ccc(OC(=O)c2oc3ccccc3c2C)c(OC)c1 | inconclusive: 29.1 µM [inhibitor, single point] | 
Cc1ccc(C)c(OC(=O)C2CSC3(C)CCC(=O)N23)c1C (centres undefined) | inconclusive: 6.51 µM [inhibitor, single point] | 
COc1cccc(NC(=O)CCCCCN2C(=O)[C@@H]3Cc4ccccc4CN3C2=O)c1 | inconclusive: 29.1 µM [inhibitor, single point] | 

SMILES | Potency | activity change, negative = growth inhibition
O=S(=O)(c1ccccc1)N1CCC2(CCCN(c3ccccc3)C2)CC1 | inconclusive: 29.1 µM [inhibitor, single point] | 
COC(=O)[C@@H](Cc1ccccc1)NC(=O)NCCc1c[nH]c2ccccc12 |  | inconclusive: -36.2% [inhibitor]
Cc1cccc(CNC(=O)c2cnc3sc(N4CCCCC4)nn3c2=O)c1 | inconclusive: 10.3 µM [inhibitor, partial curve] | 
CCOC(=O)c1c(C)c(C(=O)NCCc2ccc(OC)cc2)c(C)n1C | inactive | 
FC(F)(F)c1ccccc1Cc1c(-c2ccc(Cl)cc2)nc2ccc(Br)cn12 | inconclusive: 2.31 µM [inhibitor, full curve] | 
O=C(Cc1ccc(F)cc1)N1CCC(c2nc3c(nnn3Cc3ccc(Cl)cc3)c(=O)[nH]2)CC1 | inconclusive: 29.1 µM [inhibitor, single point] | 
CC(Oc1ccc(C(C)(C)C)cc1)C(=O)NC1CC(C)(C)NC(C)(C)C1 (centres undefined) | inconclusive: 29.1 µM [inhibitor, single point] | 
CN(C(=O)CSc1cn(CC(=O)N2CCCCC2)c2ccccc12)c1ccccc1 | inconclusive: 29.1 µM [inhibitor, single point] | 
O=C(NCCF)C1Nc2ccc(OC(F)(F)F)cc2C2C=CCC12 (centres undefined) | inactive | 
CCOc1ccc(S(=O)(=O)Nc2cc(OC)c(OC)cc2C(=O)O)cc1 | inactive | 
Cc1nn(C)c(C)c1NC(=O)CCl | inconclusive: 29.1 µM [inhibitor, single point] | 
O=C(N/N=C/c1cccc(O)c1)c1ccc(NC(=O)C2CCCCC2)cc1 | inconclusive: 23.1 µM [inhibitor, single point] | 
Clc1ccccc1-c1ncnc2ccc(Br)cc12 | inconclusive: 23.1 µM [inhibitor, single point] | 
CN1CCN(C(=O)c2cc3nc(-c4ccccc4)cc(-c4ccccc4)n3n2)CC1 | inconclusive: 32.6 µM [inhibitor, single point] | 
CCc1ccc(NC(=O)CSc2nnc(-c3ccccc3)n2C)cc1 | inactive | 
COC(=O)[C@H]1C[C@@H]1[C@H](NC(=O)OCc1ccccc1)c1ccccc1 | inconclusive: 29.1 µM [inhibitor, single point] | 
CO/N=C/NC(=O)NOCc1ncc(C(F)(F)F)cc1Cl | inactive | 
CC[C@]12c3[nH]c4cc(-c5ccco5)ccc4c3CCN1C(=O)[C@@H](CC(=O)NCCCOC)C[C@@H]2C(=O)N1CCN(C(=O)c2ccco2)CC1 | inconclusive: 29.1 µM [inhibitor, single point] | 
O=C(c1ccc(-n2cncn2)c([N+](=O)[O-])c1)N1CCN(S(=O)(=O)c2c(F)cccc2F)CC1 | inconclusive: 16.4 µM [inhibitor, single point] | 
COc1ccc(N2CCN(C(=O)CCc3ccc(S(=O)(=O)NC(C)C)cc3)CC2)cc1 | inconclusive: 20.6 µM [inhibitor, partial curve] | 
CCOc1ccc(NS(=O)(=O)c2ccc(C(=O)NCC(c3ccco3)N(C)C)cc2)cc1 (centres undefined) | inconclusive: 23.1 µM [inhibitor, single point] | 
Cc1cc(C(=O)N2CC=C(c3ccccc3)CC2)c2ccccc2n1 | active: 0.92 µM | 
COc1ccc(C(NC(=O)CC(C)C)c2c(O)ccc3ccccc23)cc1 (centres undefined) | inconclusive: 18.4 µM [inhibitor, single point] | 
